Assay results as given in patent US20250333467A1 (TECTONIC OPERATING, published 2025).

How the values were obtained:
Test in all cases: cell-based or functional assay
human RXFP1 [1] = molecular target: T1, human RXFP1 (human, UniProt Q9HBX9 1-757)
T1 sequence (looked up): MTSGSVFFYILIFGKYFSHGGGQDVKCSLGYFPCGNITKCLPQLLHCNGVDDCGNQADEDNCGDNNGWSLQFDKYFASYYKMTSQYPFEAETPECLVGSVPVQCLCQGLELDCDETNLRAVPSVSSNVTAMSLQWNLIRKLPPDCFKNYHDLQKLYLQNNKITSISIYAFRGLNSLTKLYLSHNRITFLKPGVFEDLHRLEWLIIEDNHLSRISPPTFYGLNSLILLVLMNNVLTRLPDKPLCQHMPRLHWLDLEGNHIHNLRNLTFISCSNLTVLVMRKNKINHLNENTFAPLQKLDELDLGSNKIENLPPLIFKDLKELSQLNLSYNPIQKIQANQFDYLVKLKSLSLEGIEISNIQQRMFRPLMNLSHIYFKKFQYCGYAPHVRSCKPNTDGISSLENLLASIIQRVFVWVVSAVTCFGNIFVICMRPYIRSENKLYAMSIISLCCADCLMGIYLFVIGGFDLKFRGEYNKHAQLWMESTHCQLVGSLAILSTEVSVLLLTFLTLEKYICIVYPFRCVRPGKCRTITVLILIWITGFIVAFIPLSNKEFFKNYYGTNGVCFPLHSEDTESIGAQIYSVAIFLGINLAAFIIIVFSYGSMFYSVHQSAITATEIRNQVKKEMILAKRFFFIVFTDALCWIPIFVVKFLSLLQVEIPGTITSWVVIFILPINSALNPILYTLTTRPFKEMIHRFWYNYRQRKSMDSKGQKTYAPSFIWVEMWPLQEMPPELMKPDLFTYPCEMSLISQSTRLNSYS

rat RXFP1 [2] = molecular target: T2, rat RXFP1 (rat, UniProt Q6R6I6 1-758)
T2 sequence (looked up): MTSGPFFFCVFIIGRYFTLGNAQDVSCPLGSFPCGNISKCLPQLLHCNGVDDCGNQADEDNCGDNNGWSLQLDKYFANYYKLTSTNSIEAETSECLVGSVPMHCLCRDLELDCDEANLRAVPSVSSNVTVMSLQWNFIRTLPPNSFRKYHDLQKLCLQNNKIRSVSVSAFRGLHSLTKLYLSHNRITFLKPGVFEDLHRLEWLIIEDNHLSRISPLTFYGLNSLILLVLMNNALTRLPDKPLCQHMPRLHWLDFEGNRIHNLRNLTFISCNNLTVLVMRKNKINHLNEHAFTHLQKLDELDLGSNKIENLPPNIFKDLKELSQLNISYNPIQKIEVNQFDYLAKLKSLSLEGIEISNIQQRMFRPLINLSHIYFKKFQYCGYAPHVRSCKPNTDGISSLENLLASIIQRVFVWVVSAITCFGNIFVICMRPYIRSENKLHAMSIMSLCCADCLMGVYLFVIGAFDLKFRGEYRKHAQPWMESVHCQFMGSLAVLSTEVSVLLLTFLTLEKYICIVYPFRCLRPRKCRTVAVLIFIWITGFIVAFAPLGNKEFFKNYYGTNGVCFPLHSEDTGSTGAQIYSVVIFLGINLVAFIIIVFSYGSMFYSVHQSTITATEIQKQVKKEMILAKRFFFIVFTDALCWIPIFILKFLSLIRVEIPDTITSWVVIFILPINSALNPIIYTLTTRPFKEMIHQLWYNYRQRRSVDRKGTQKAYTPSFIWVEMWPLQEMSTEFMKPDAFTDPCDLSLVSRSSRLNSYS

rat RXFP1 [3] = molecular target: T2, rat RXFP1; remark: listed apart in the source
rat RXFP1 [4] = molecular target: T2, rat RXFP1; remark: listed apart in the source
human RXFP1 [5] = molecular target: T1, human RXFP1; remark: listed apart in the source
human RXFP1 [6] = molecular target: T1, human RXFP1; remark: listed apart in the source

B1: SEQ ID NO: 301 (Fc fusion)
chain: [human IgG1 Fc with changes not given here]GGSDSWKEEVIKLCGRELVRAQIAICGKSTGGGEGGGEGGGEGGGQLYSALANKCCHVGCTKRSLARFC
EC50, cAMP response in RXFP1 transfected HEK293 cells (human RXFP1 [1]): 7.87 nM | pEC50, cAMP response in RXFP1 transfected HEK293 cells (human RXFP1 [1]): 8.1

B2: SEQ ID NO: 306 (Fc fusion)
chain: [human IgG1 Fc with changes not given here]GGSDSWQEEVIKLCGRELVRAQIAICGKSTGGGEGGGEGGGEGGGQLYSALANKCCHVGCTKRSLARFC
EC50, cAMP response in RXFP1 transfected HEK293 cells (human RXFP1 [1]): 17.7 nM | pEC50, cAMP response in RXFP1 transfected HEK293 cells (human RXFP1 [1]): 7.75

B3: SEQ ID NO: 305 (Fc fusion)
chain: [human IgG1 Fc with changes not given here]GGSDSWMEEVIKLCGRELVRAQIAICGKSTGGGEGGGEGGGEGGGQLYSALANKCCHVGCTKRSLARFC
EC50, cAMP response in RXFP1 transfected HEK293 cells (human RXFP1 [1]): 14.7 nM | pEC50, cAMP response in RXFP1 transfected HEK293 cells (human RXFP1 [1]): 7.83

B4: SEQ ID NO: 359 (Fc fusion)
chain: [human IgG1 Fc with changes not given here]GGSDSWKEEVIKLCGRELVRAQIAICGKSTASDAAGANANAGARQLYSALANKCCHVGCTKRSLAQFC
EC50, cAMP response in RXFP1 transfected HEK293 cells (human RXFP1 [1]): 0.42 nM | pEC50, cAMP response in RXFP1 transfected HEK293 cells (human RXFP1 [1]): 9.37

B5: SEQ ID NO: 360 (Fc fusion)
chain: [human IgG1 Fc with changes not given here]GGSDSWKEEVIKLCGRELVRAQIAICGKSTASDAAGANANAGARQLYSALANKCCHVGCTKRSLAEFC
EC50, cAMP response in RXFP1 transfected HEK293 cells (human RXFP1 [1]): 1.46 nM | pEC50, cAMP response in RXFP1 transfected HEK293 cells (human RXFP1 [1]): 8.84

B6: SEQ ID NO: 302 (Fc fusion)
chain: [human IgG1 Fc with changes not given here]GGSDSWMEEVIKLCGRELVRAQIAICGKSTGGGEGGGEGGGEGRQLYSALANKCCHVGCTKRSLARFC
EC50, cAMP response in RXFP1 transfected HEK293 cells (human RXFP1 [1]): 2.41 nM | pEC50, cAMP response in RXFP1 transfected HEK293 cells (human RXFP1 [1]): 8.62

B7: SEQ ID NO: 303 (Fc fusion)
chain: [human IgG1 Fc with changes not given here]GGSDSWQEEVIKLCGRELVRAQIAICGKSTGGGEGGGEGGGEGRQLYSALANKCCHVGCTKRSLARFC
EC50, cAMP response in RXFP1 transfected HEK293 cells (human RXFP1 [1]): 1.9 nM | pEC50, cAMP response in RXFP1 transfected HEK293 cells (human RXFP1 [1]): 8.72

B8: SEQ ID NO: 300 (Fc fusion)
chain: [human IgG1 Fc with changes not given here]GGSDSWKEEVIKLCGRELVRAQIAICGKSTGGGEGGGEGGGEGRQLYSALANKCCHVGCTKRSLARFC
EC50, cAMP response in RXFP1 transfected HEK293 cells (human RXFP1 [1]): 2.17 nM | pEC50, cAMP response in RXFP1 transfected HEK293 cells (human RXFP1 [1]): 8.66

B9: SEQ ID NO: 497 (Fc fusion)
chain: [human IgG1 Fc not given here]GGGGSGGGGSGGGGSQLYSALANKCCHVGCTKRSLARFCGGGGSGGGGSGGGGSSWMEEVIKLCGRELVRAQIAICGMSTWS
Transient HEK293 rRXFP1 cAMP EC50 (rat RXFP1 [2]): 0.95 nM | fold in vitro potency against SEQ ID NO: 87, rat RXFP1 signaling assay (rat RXFP1 [3]): > 30 fold | EC50 for cAMP generation, recombinant rat RXFP1 assay (average) (rat RXFP1 [4]): 1 nM | EC50 for cAMP generation, recombinant human RXFP1 assay (average) (human RXFP1 [5]): 0.3 nM | Potency (cAMP, transient hRXFP1 in HEK293) (human RXFP1 [6]): 0.3 nM
